Results as given in the supplement of paper PMC10126150.
Sequences with one replicate were seen in a single cluster, so their values are uncertain.

System: ATP
Assay: switch fluorescence ratio, 500 uM ATP over buffer (Cy3 cluster intensity, sum of 5 cycles each) (fold (ratio)); higher = stronger signal-on switching upon ATP binding; sequences stand for … in TCGTCGGCAGCGTCAGATGTGTATAAGAGACAGTTTTTTTTTTTTTTTTTTTTTTTTT…TC
Conditions: aptamer strand: ATP DNA aptamer (quencher-CACCTGGGGGAGTATTGCGGAGGAAGG + anchor), 100 nM annealed; ATP concentration: 500 uM; one replicate
Outline: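 Clusters carrying Cy3-labelled switching strands on a modified Illumina MiSeq flow-cell were annealed to 100 nM quencher-labelled ATP aptamer and imaged in selection buffer. They were imaged again after 15 min with 500 uM ATP at 22 °C, over five buffer/ATP cycles with NaOH stripping and re-annealing in between. For each cluster, the fluorescence ratio is the summed Cy3 intensity of the target cycles divided by that of the buffer cycles, averaged per switch-domain sequence. Clusters outside 100-1000 RFU were left out.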
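Also: ATP exposure 15 min at 22 °C before imaging.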

Sequence	switch fluorescence ratio
AAAAAAACTA	1.04
AAAAAAGATG	1.01
AAAAAAGCGC	0.999
AAAAAAGCTC	0.994
AAAAACCTA	1.07
AAAAACGAAA	0.94
AAAAACTCG	1.1
AAAAAGACGC	1
AAAAAGAGAT	0.978
AAAAAGAGCA	0.995
AAAAAGCGGC	1.02
AAAAAGCTAT	0.959
AAAAAGGCTC	1.03
AAAAATCA	0.996
AAAAATCTAG	0.995
AAAAATCTAT	1.03
AAAAATCTTG	1.01
AAAAATGGAA	1.03
AAAAATTATA	1
AAAAATTCTA	1.07
AAAACACAA	1.02
AAAACACAG	1.07
AAAACCCCGC	1.4
AAAACCCCTG	1.05
AAAACCCCTT	2.1
AAAACCGACG	0.963

Sequence	switch fluorescence ratio
AAAACGGGAT	0.967
AAAACGGTTC	1.08
AAAACTGAT	0.995
AAAACTGGAA	1.01
AAAACTTTA	1.06
AAAAGAATAG	0.959
AAAAGAATCA	1.03
AAAAGACACC	1.02
AAAAGACGAG	1.01
AAAAGAGCCG	1.15
AAAAGATATG	1.01
AAAAGCTATC	0.937
AAAAGGACCG	1.06
AAAAGGGCGA	1
AAAAGTGATA	1
AAAAGTTCCG	1.03
AAAATAGAGT	1
AAAATATTAT	1.02
AAAATCGCAG	1.06
AAAATCGTGT	0.99
AAAATCTTTG	0.972
AAAATGATTG	0.99
AAAATGCGTC	0.932
AAAATGGT	1
AAAATTAGCA	1.01
AAAATTATG	0.986

Sequence	switch fluorescence ratio
AAACCACGAC	1.28
AAACCATTAA	1.04
AAACCGAGAA	0.969
AAACCTAAAT	1.07
AAACCTGATA	1.02
AAACCTTATT	1.15
AAACGAACAA	1.14
AAACGAATGT	0.961
AAACGAGATG	1.04
AAACGCCGA	0.969
AAACGCCTCT	1.02
AAACGCTGGG	0.987
AAACGGCAGT	1.03
AAACGGGGAA	1
AAACGTGGTC	0.963
AAACGTGTCT	1.05
AAACGTTCGA	1.08
AAACTCAGGA	0.993
AAACTCTTTC	1.28
AAACTGAAAG	1.03
AAACTGCGAC	1.18
AAACTGCTG	1.03
AAACTTAACA	1.16
AAACTTACAC	1.16
AAACTTCCGG	1.57
AAAGAAAAGT	0.962

Sequence	switch fluorescence ratio
AAAGAATTGC	1.03
AAAGACCGGG	1.01
AAAGAGAAGG	1.03
AAAGAGCCTG	1.15
AAAGAGGCGA	0.955
AAAGATCCAA	1.01
AAAGATCCCT	0.972
AAAGATGTGT	1
AAAGCACTGA	1.11
AAAGCATCCC	1.07
AAAGCCCACG	1.08
AAAGCGAAAT	0.977
AAAGCGATAT	1.7
AAAGCGCGTG	1.02
AAAGCGGCTT	0.973
AAAGCGTCCT	1.12
AAAGCTGTTG	1.02
AAAGGAATTA	0.961
AAAGGACTCT	1.03
AAAGGCAGTT	0.99
AAAGGGAGAC	0.991
AAAGGGATTC	1.01
AAAGGGCACC	1.02
AAAGGGTGT	1.09
AAAGGTACCA	1.06
AAAGGTCAGA	1.02

Sequence	switch fluorescence ratio
AAAGGTGAGC	1.02
AAAGTATGGA	0.957
AAAGTATTA	1.13
AAAGTCGCGA	1.02
AAAGTCGCGG	0.997
AAAGTGATCC	1.17
AAAGTGGACT	0.97
AAAGTGGCCG	0.965
AAAGTGTCTC	1.01
AAAGTGTTAC	1.02
AAAGTTAGTG	1.01
AAAGTTGGAC	1.03
AAAGTTTGTG	0.95
AAATACACCA	1.12
AAATACTAC	1.33
AAATACTCA	1.28
AAATAGAAAG	1.01
AAATAGAATT	1
AAATAGAGTC	1.01
AAATAGGGCG	0.99
AAATAGTACT	1.01
AAATATCGCG	0.988
AAATATTTTG	1.02
AAATCATG	1.03
AAATCCAAAA	1
AAATCCATAC	1.22

Sequence	switch fluorescence ratio
AAATCCGCCA	1.99
AAATCGGATC	1.01
AAATCTATCG	0.981
AAATCTCAGG	0.975
AAATGACTCC	1.22
AAATGATCGC	1.01
AAATGCGGA	1.01
AAATGGAATC	1.07
AAATGGCCTA	0.972
AAATGGGACG	1.04
AAATGGTATT	0.983
AAATGTCTGC	0.993
AAATGTGGTA	0.97
AAATGTTGCT	0.959
AAATTAACGT	1.17
AAATTATAAT	0.995
AAATTATTTA	0.996
AAATTCCAGC	1.03
AAATTGTAGG	0.992
AAATTGTCTC	1.05
AAATTTGATC	1
AAATTTTAGC	1.01
AAATTTTGCG	0.995
AACAAAGCAT	1.04
AACAAAGGGT	1.03
AACAAAGTGT	0.948

Sequence	switch fluorescence ratio
AACAACGTAA	1.17
AACAAGGGGC	1.14
AACAATAATA	0.989
AACACACAT	1.25
AACACAGTCA	1.05
AACACATTTT	1.06
AACACGATCT	0.976
AACACGCCGT	1.02
AACACTGATG	0.943
AACACTTTTT	1.02
AACAGACGAT	1.24
AACAGATGCC	1.02
AACAGCAGGT	1.02
AACAGGCATA	0.999
AACAGGCTGA	0.975
AACAGGTTGG	1.01
AACAGTCATT	0.991
AACATAAGAG	1
AACATATA	1.03
AACATCCCGT	1.01
AACATCTGCG	1.04
AACATGAATT	0.983
AACATGAGAA	0.965
AACATGGCAA	1.02
AACATGGGTG	0.981
AACATTTGCA	1.03

Sequence	switch fluorescence ratio
AACCACAAT	1.1
AACCACCAAA	1.08
AACCAGACAC	1.06
AACCAGAGGG	0.998
AACCAGGAAT	1.14
AACCAGGGA	1.08
AACCAGGTGG	1.47
AACCAGGTTC	1.04
AACCATCAAC	1.01
AACCCCGAAG	1.64
AACCCCTGAT	1.03
AACCCGAATT	1.01
AACCCGGGTA	0.961
AACCCGTCGT	1
AACCCTGGTG	4.87
AACCGCAGAT	1.43
AACCGCCTGA	1.27
AACCGCTTTG	0.978
AACCGGGAT	1.02
